According to the supplement of paper PMC8728848:
This is one part of the list.

Experiments:
Experiment in all cases: glycan array binding signal (z-score within array); higher = stronger binding
Settings in all cases: glycan notation: IUPAC condensed, linker removed
[1] = target: GlcNAc(b1-3)Gal(b1-3)GalNAc
In short: (§1)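 Glycan array binding is given as a within-array Z-score, which can be read as non-binding when negative. The arrays, 3228 of them, came from the Consortium for Functional Glycomics database and were retained only where the protein sequence was available. Z-scores were averaged across arrays of the same protein sequence at different concentrations or buffers and across linkers.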

GlcNAc(b1-3)Gal(b1-4)Glc = target: GlcNAc(b1-3)Gal(b1-4)Glc
In short: as §1

[2] = target: GlcNAc(b1-3)Gal(b1-4)GlcNAc
In short: as §1

[3] = target: GlcNAc(b1-3)Gal(b1-4)GlcNAc(b1-2)Man(a1-3)[GlcNAc(b1-3)Gal(b1-4)GlcNAc(b1-2)Man(a1-6)]Man(b1-4)GlcNAc(b1-4)GlcNAc
In short: as §1

[4] = target: GlcNAc(b1-3)Gal(b1-4)GlcNAc(b1-2)Man(a1-3)[GlcNAc(b1-3)Gal(b1-4)GlcNAc(b1-2)Man(a1-6)]Man(b1-4)GlcNAc(b1-4)[Fuc(a1-6)]GlcNAc
In short: as §1

[5] = target: GlcNAc(b1-3)Gal(b1-4)GlcNAc(b1-2)[GlcNAc(b1-3)Gal(b1-4)GlcNAc(b1-6)]Man(a1-6)[GlcNAc(b1-3)Gal(b1-4)GlcNAc(b1-2)Man(a1-3)]Man(b1-4)GlcNAc(b1-4)GlcNAc
In short: as §1

[6] = target: GlcNAc(b1-3)Gal(b1-4)GlcNAc(b1-3)Gal(b1-4)GlcNAc
In short: as §1

[7] = target: GlcNAc(b1-3)Gal(b1-4)GlcNAc(b1-3)Gal(b1-4)GlcNAc(b1-2)Man(a1-3)[GlcNAc(b1-3)Gal(b1-4)GlcNAc(b1-3)Gal(b1-4)GlcNAc(b1-2)Man(a1-6)]Man(b1-4)GlcNAc(b1-4)GlcNAc
In short: as §1

[8] = target: GlcNAc(b1-3)Gal(b1-4)GlcNAc(b1-3)Gal(b1-4)GlcNAc(b1-2)Man(a1-3)[GlcNAc(b1-3)Gal(b1-4)GlcNAc(b1-3)Gal(b1-4)GlcNAc(b1-2)Man(a1-6)]Man(b1-4)GlcNAc(b1-4)[Fuc(a1-6)]GlcNAc
In short: as §1

[9] = target: GlcNAc(b1-3)Gal(b1-4)GlcNAc(b1-3)Gal(b1-4)GlcNAc(b1-2)[GlcNAc(b1-3)Gal(b1-4)GlcNAc(b1-3)Gal(b1-4)GlcNAc(b1-6)]Man(a1-6)[GlcNAc(b1-3)Gal(b1-4)GlcNAc(b1-3)Gal(b1-4)GlcNAc(b1-2)Man(a1-3)]Man(b1-4)GlcNAc(b1-4)[Fuc(a1-6)]GlcNAc
In short: as §1

[10] = target: GlcNAc(b1-3)Gal(b1-4)GlcNAc(b1-3)Gal(b1-4)GlcNAc(b1-3)Gal(b1-4)GlcNAc(b1-2)Man(a1-3)[GlcNAc(b1-3)Gal(b1-4)GlcNAc(b1-3)Gal(b1-4)GlcNAc(b1-3)Gal(b1-4)GlcNAc(b1-2)Man(a1-6)]Man(b1-4)GlcNAc(b1-4)GlcNAc
In short: as §1

[11] = target: GlcNAc(b1-3)Gal(b1-4)GlcNAc(b1-3)Gal(b1-4)GlcNAc(b1-3)Gal(b1-4)GlcNAc(b1-2)Man(a1-3)[GlcNAc(b1-3)Gal(b1-4)GlcNAc(b1-3)Gal(b1-4)GlcNAc(b1-3)Gal(b1-4)GlcNAc(b1-2)Man(a1-6)]Man(b1-4)GlcNAc(b1-4)[Fuc(a1-6)]GlcNAc
In short: as §1

[12] = target: GlcNAc(b1-3)Gal(b1-4)GlcNAc(b1-3)Gal(b1-4)GlcNAc(b1-3)Gal(b1-4)GlcNAc(b1-2)[GlcNAc(b1-3)Gal(b1-4)GlcNAc(b1-3)Gal(b1-4)GlcNAc(b1-3)Gal(b1-4)GlcNAc(b1-6)]Man(a1-6)[GlcNAc(b1-3)Gal(b1-4)GlcNAc(b1-3)Gal(b1-4)GlcNAc(b1-3)Gal(b1-4)GlcNAc(b1-2)Man(a1-3)]Man(b1-4)GlcNAc(b1-4)[Fuc(a1-6)]GlcNAc
In short: as §1

[13] = target: GlcNAc(b1-3)Gal(b1-4)GlcNAc(b1-3)Gal(b1-4)GlcNAc(b1-3)Gal(b1-4)GlcNAc(b1-3)Gal(b1-4)GlcNAc(b1-2)Man(a1-3)[GlcNAc(b1-3)Gal(b1-4)GlcNAc(b1-3)Gal(b1-4)GlcNAc(b1-3)Gal(b1-4)GlcNAc(b1-3)Gal(b1-4)GlcNAc(b1-2)Man(a1-6)]Man(b1-4)GlcNAc(b1-4)GlcNAc
In short: as §1

[14] = target: GlcNAc(b1-3)Gal(b1-4)GlcNAc(b1-3)Gal(b1-4)GlcNAc(b1-3)Gal(b1-4)GlcNAc(b1-3)Gal(b1-4)GlcNAc(b1-2)Man(a1-3)[GlcNAc(b1-3)Gal(b1-4)GlcNAc(b1-3)Gal(b1-4)GlcNAc(b1-3)Gal(b1-4)GlcNAc(b1-3)Gal(b1-4)GlcNAc(b1-2)Man(a1-6)]Man(b1-4)GlcNAc(b1-4)[Fuc(a1-6)]GlcNAc
In short: as §1

[15] = target: GlcNAc(b1-3)Gal(b1-4)GlcNAc(b1-3)Gal(b1-4)GlcNAc(b1-3)Gal(b1-4)GlcNAc(b1-3)Gal(b1-4)GlcNAc(b1-2)[GlcNAc(b1-3)Gal(b1-4)GlcNAc(b1-3)Gal(b1-4)GlcNAc(b1-3)Gal(b1-4)GlcNAc(b1-3)Gal(b1-4)GlcNAc(b1-6)]Man(a1-6)[GlcNAc(b1-3)Gal(b1-4)GlcNAc(b1-3)Gal(b1-4)GlcNAc(b1-3)Gal(b1-4)GlcNAc(b1-3)Gal(b1-4)GlcNAc(b1-2)Man(a1-3)]Man(b1-4)GlcNAc(b1-4)[Fuc(a1-6)]GlcNAc
In short: as §1

[16] = target: GlcNAc(b1-3)Gal(b1-4)GlcNAc(b1-3)Gal(b1-4)GlcNAc(b1-3)GalNAc
In short: as §1

[17] = target: GlcNAc(b1-3)Gal(b1-4)GlcNAc(b1-3)GalNAc
In short: as §1

[18] = target: GlcNAc(b1-3)Gal(b1-4)GlcNAc(b1-3)[GlcNAc(b1-3)Gal(b1-4)GlcNAc(b1-3)]GalNAc
In short: as §1

[19] = target: GlcNAc(b1-3)Gal(b1-4)GlcNAc(b1-6)[Gal(b1-3)]GalNAc
In short: as §1

[20] = target: GlcNAc(b1-3)Gal(b1-4)GlcNAc(b1-6)[GlcNAc(b1-3)Gal(b1-3)]GalNAc
In short: as §1

[21] = target: GlcNAc(b1-3)Gal(b1-4)GlcNAc(b1-6)[GlcNAc(b1-3)]Gal(b1-4)GlcNAc
In short: as §1

GlcNAc(b1-3)GalNAc = target: GlcNAc(b1-3)GalNAc
In short: as §1

GlcNAc(b1-3)Man = target: GlcNAc(b1-3)Man
In short: as §1

[22] = target: GlcNAc(b1-3)[GlcNAc(b1-4)][GlcNAc(b1-6)]GlcNAc
In short: as §1

[23] = target: GlcNAc(b1-3)[GlcNAc(b1-6)]Gal(b1-4)GlcNAc
In short: as §1

[24] = target: GlcNAc(b1-3)[GlcNAc(b1-6)]GalNAc
In short: as §1

[25] = target: GlcNAc(b1-4)Gal(b1-4)GlcNAc
In short: as §1

GlcNAc(b1-4)GlcNAc = target: GlcNAc(b1-4)GlcNAc
In short: as §1

[26] = target: GlcNAc(b1-4)GlcNAc(b1-4)GlcNAc
In short: as §1

[27] = target: GlcNAc(b1-4)GlcNAc(b1-4)GlcNAc(b1-4)GlcNAc(b1-4)GlcNAc
In short: as §1

[28] = target: GlcNAc(b1-4)GlcNAc(b1-4)GlcNAc(b1-4)GlcNAc(b1-4)GlcNAc(b1-4)GlcNAc
In short: as §1

[29] = target: GlcNAc(b1-4)[GlcNAc(b1-6)]GalNAc
In short: as §1

[30] = target: GlcNAc(b1-6)Gal(b1-4)GlcNAc
In short: as §1

GlcNAc(b1-6)GalNAc = target: GlcNAc(b1-6)GalNAc
In short: as §1

[31] = target: GlcNAc6S(b1-3)Gal(b1-4)GlcNAc
In short: as §1

Kdn(a2-3)Gal(b1-3)GalNAc = target: Kdn(a2-3)Gal(b1-3)GalNAc
In short: as §1

Kdn(a2-3)Gal(b1-3)GlcNAc = target: Kdn(a2-3)Gal(b1-3)GlcNAc
In short: as §1

Kdn(a2-3)Gal(b1-4)Glc = target: Kdn(a2-3)Gal(b1-4)Glc
In short: as §1

Kdn(a2-3)Gal(b1-4)GlcNAc = target: Kdn(a2-3)Gal(b1-4)GlcNAc
In short: as §1

[32] = target: Kdn(a2-3)Gal(b1-4)[Fuc(a1-3)]GlcNAc
In short: as §1

Kdn(a2-6)Gal(b1-4)GlcNAc = target: Kdn(a2-6)Gal(b1-4)GlcNAc
In short: as §1

[33] = target: Man(a1-2)Man(a1-2)Man(a1-3)Man
In short: as §1

[34] = target: Man(a1-2)Man(a1-2)Man(a1-6)[Man(a1-3)]Man
In short: as §1

Man(a1-2)Man(a1-3)Man = target: Man(a1-2)Man(a1-3)Man
In short: as §1

B1: Banana lectin (Musa acuminata) (protein)
chain: MNGAIKVGAWGGNGGSAFDMGPAYRIISVKIFSGDVVDAVDVTFTYYGKTETRHFGGSGGTPHEIVLQEGEYLVGMKGEFGNYHGVVVVGKLGFSTNKKSYGPFGNTGGTPFSLPIAAGKISGFFGRGGDFIDAIGVYLEP
- glycan array binding signal (z-score) [1]: -0.188
- glycan array binding signal (z-score) (GlcNAc(b1-3)Gal(b1-4)Glc): -0.193
- glycan array binding signal (z-score) [2]: -0.193
- glycan array binding signal (z-score) [3]: -0.162
- glycan array binding signal (z-score) [4]: -0.16
- glycan array binding signal (z-score) [5]: -0.14
- glycan array binding signal (z-score) [6]: -0.194
- glycan array binding signal (z-score) [7]: -0.183
- glycan array binding signal (z-score) [8]: -0.172
- glycan array binding signal (z-score) [9]: -0.17
- glycan array binding signal (z-score) [10]: -0.179
- glycan array binding signal (z-score) [11]: -0.171
- glycan array binding signal (z-score) [12]: -0.173
- glycan array binding signal (z-score) [13]: -0.164
- glycan array binding signal (z-score) [14]: -0.11
- glycan array binding signal (z-score) [15]: -0.139
- glycan array binding signal (z-score) [16]: -0.191
- glycan array binding signal (z-score) [17]: -0.196
- glycan array binding signal (z-score) [18]: -0.189
- glycan array binding signal (z-score) [19]: -0.193
- glycan array binding signal (z-score) [20]: -0.185
- glycan array binding signal (z-score) [21]: -0.193
- glycan array binding signal (z-score) (GlcNAc(b1-3)GalNAc): -0.194
- glycan array binding signal (z-score) (GlcNAc(b1-3)Man): -0.19
- glycan array binding signal (z-score) [22]: -0.193
- glycan array binding signal (z-score) [23]: -0.194
- glycan array binding signal (z-score) [24]: -0.192
- glycan array binding signal (z-score) [25]: -0.192
- glycan array binding signal (z-score) (GlcNAc(b1-4)GlcNAc): -0.195
- glycan array binding signal (z-score) [26]: -0.194
- glycan array binding signal (z-score) [27]: -0.195
- glycan array binding signal (z-score) [28]: -0.195
- glycan array binding signal (z-score) [29]: -0.197
- glycan array binding signal (z-score) [30]: -0.194
- glycan array binding signal (z-score) (GlcNAc(b1-6)GalNAc): -0.195
- glycan array binding signal (z-score) [31]: -0.193
- glycan array binding signal (z-score) (Kdn(a2-3)Gal(b1-3)GalNAc): -0.195
- glycan array binding signal (z-score) (Kdn(a2-3)Gal(b1-3)GlcNAc): -0.192
- glycan array binding signal (z-score) (Kdn(a2-3)Gal(b1-4)Glc): -0.192
- glycan array binding signal (z-score) (Kdn(a2-3)Gal(b1-4)GlcNAc): -0.193
- glycan array binding signal (z-score) [32]: -0.193
- glycan array binding signal (z-score) (Kdn(a2-6)Gal(b1-4)GlcNAc): -0.192
- glycan array binding signal (z-score) [33]: 3.39
- glycan array binding signal (z-score) [34]: 8.43
- glycan array binding signal (z-score) (Man(a1-2)Man(a1-3)Man): 5.44
